The whole screen tested about 48,000 compounds, of which about 120 (0.25%) were called active. Inconclusive results (about 4%) are left out. Calls come from the whole dose curve; as a rule, active = well fitted activation curve with a large enough effect; inconclusive = small, poorly fitted or top-dose-only effect, or another doubt; inactive = no such curve, though single readings can be large or run the other way. The list shows a part of the results.

The nature of the assay: Primary qHTS for Identification of Small Molecule Activators of Huntingtin-Antisense Promoter Activity. Note: nearly all actives have a fitted effect of over 55% in size. To be noted: HEK293 HTT-AS promoter firefly luciferase reporter (activity 0% = vehicle and -100% = no light), 24 h; series mostly up to 57.5 µM; activity change, positive = activation: at the top concentration. An outline of the steps: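 Luminescence was read after Dual-Glo reagent and a 10 min room-temperature incubation. Values were normalized to vehicle (0% activity) and zero RLU (-100% activity). Reporter HEK293 cells had been exposed to compounds (up to 57.5 uM final) for 24 h.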
(In general: Quantitative high-throughput screening tests each substance at several concentrations.)
In the case of `CCCN1CCc2nc(N3CCN(C)CC3)ncc2C1`, the “activity change, positive = activation” value was inactive: -17.7%.
Then `CCN(CC)c1nn2c(=O)c(C(=O)NCCc3cccc(C)c3)cnc2s1`, with inactive: -20.9%.
Then `CCc1cccc(C)c1NS(=O)(=O)c1ccc2c(c1)CC(C)N2C(=O)C1CC1` (stereo unspecified), with inactive: -50.4%; and `COc1ccc(-c2noc(CSc3nc4ccccc4[nH]3)n2)cc1OC`, with inactive: -27.9%; and `COc1ccc(S(=O)(=O)NCCc2csc3nc(-c4ccccc4)nn23)cc1OC`, with inactive: -20.3%.
Under `CCN1C(=O)C(O)(c2c[nH]c3ccccc23)c2cc(Br)ccc21` (stereo unspecified) stands inactive: -13.3%; under `Cc1cccc(Cn2c(=O)n(-c3ccccc3C)c(=O)c3c2c2cc(C)ccc2n3C)c1`, inactive: -19.4%.
Regarding `Cc1ccc(CCNC(=O)C2CCN(S(=O)(=O)c3ccc4c(ccn4C)c3)CC2)cc1`, the “activity change, positive = activation” value is inactive: -12.4%.
Then `Cc1ccc(-c2nc3c4c(-c5ccccc5)c(-c5ccccc5)oc4ncn3n2)cc1`, with inactive: -6.13%; and `Cc1ccc(CNC(=O)CSc2nc3ccccc3nc2Cc2ccc(C)cc2)cc1`, with inactive: -4.34%.
Under `CCOc1ccc(NC(=O)c2c(C)oc3nc(C)nc(N4CCOCC4)c23)cc1` stands inactive: -4.4%.
As for `Cc1cccc(-c2nc3c(cnn3-c3ccccc3)c(=O)n2-c2ccc(Cl)cc2)c1`, the “activity change, positive = activation” value was inactive: 17.9%.
Under `COc1ccc(NC(=O)CSc2nc(C)cc(C)c2C(=O)Nc2ccccc2OC)cc1` stands inactive: -18.3%.
Under `COc1ccc(S(=O)(=O)NCC(c2ccco2)S(=O)(=O)c2cccs2)cc1F` (stereo unspecified) stands inactive: -15.5%; under `O=C(CCSCc1cccc(Cl)c1)NCCc1ccc(Cl)cc1`, inactive: -3.82%.
Then `CC(C)N1[N]C(=C2C=c3cc(O)ccc3=N2)c2c(N)ncnc21`, with inactive: -44%; and `O=C(c1ccccc1)N1CCc2cc(CNS(=O)(=O)c3ccc(Cl)s3)ccc21`, with inactive: -37.2%.
`CCc1ccc(C(=O)C(C)CN2CCCCC2)cc1` (stereo unspecified): the “activity change, positive = activation” value is inactive: -10.2%.
As for `COc1ccc(-n2c(SCC(=O)NCc3ccc(F)cc3)nc3c([nH]c4ccccc43)c2=O)cc1`, the “activity change, positive = activation” value is inactive: -28.5%.
Under `Cc1oc(-c2ccc(Cl)cc2)nc1Cn1c(=O)cc(C)c2c(C)nn(-c3ccccc3)c21` stands inactive: -7.3%; under `COc1ccccc1CNC(=O)CCCCn1c(=O)c2ccccc2n(Cc2ccccc2F)c1=O`, inactive: -15.6%.
On to `CC(=O)Nc1cccc(NC(=O)Cn2cnc3c(oc4ccccc43)c2=O)c1`, for which the “activity change, positive = activation” value is inactive: 6.88%.
Then `Cn1c(=O)n(C)c2cc(N3CCOCC3)c(NS(=O)(=O)c3cccc(C#N)c3)cc21`, with inactive: 0.825%; and `Cc1sc2c(c1C)c(=O)n(-c1ccc(Cl)cc1)c(=O)n2Cc1cc(=O)n2ccccc2n1`, with inactive: 2.89%; and `Cc1ccc2nc(N3CCC(C(=O)N4CCN(c5cccc(C)c5C)CC4)CC3)[nH]c2c1`, with inactive: -30.7%.
Under `CC1CCCN(C(=O)c2cc3c(=O)n(C)c4ccccc4c3s2)C1` (stereo unspecified) stands inactive: -0.762%; under `COc1ccc(C2C(C(N)=O)=C(C)Nc3nc(SCc4ccccc4Cl)nn32)cc1OC` (stereo unspecified), inactive: -18%; under `CCOc1ccc(C(=O)NCc2nc3cccnc3n2Cc2ccc(F)cc2)cc1OCC`, inactive: -11.8%.
On to `Cc1ccc(CNC(=O)c2nc(SCc3ccccc3F)ncc2Cl)cc1`, for which the “activity change, positive = activation” value is inactive: -20.2%.
On to `CCOC(=O)c1ccccc1NC(=O)CSc1nc2ccncc2[nH]1`, for which the “activity change, positive = activation” value is inactive: -19.1%.
Then `O=C(NCc1ccco1)c1ccc(Cn2c(SCc3ccc(F)cc3)nc3cccnc32)cc1`, with inactive: -0.514%.
Then `CCOC(=O)c1ccc(N2C(=O)c3n[nH]c(C)c3C2c2cccc(Br)c2)cc1` (stereo unspecified), with inactive: -68.7%; and `COc1ccc(CNC(=O)Cn2nnc(-c3ccc(C(F)(F)F)cc3)n2)cc1`, with inactive: 28.3%.
Then `COc1ccc(C(=O)c2cn(Cc3ccccc3F)c3cc4c(cc3c2=O)OCO4)cc1`, with inactive: -24.2%.
For the molecule `O=c1cc(-c2ccccc2)n2c(SCc3ccc(Cl)cc3)nnc2[nH]1`, the “activity change, positive = activation” value was inactive: 8.1%.
As to `COc1ccc(-n2c3c(cc(-c4nc(-c5ccc(C)cc5)cs4)c2=O)C(=O)CC(C)(C)C3)cc1`, the “activity change, positive = activation” value is inactive: -4.92%.
Under `CC(C)C(=O)NCC(c1ccc2c(c1)OCO2)N1CCN(c2ccccc2F)CC1` (stereo unspecified) stands inactive: -20.5%; under `COc1ccccc1C(=O)Nc1ccc2oc(-c3cccc(Cl)c3Cl)nc2c1`, inactive: 1.06%.
Then `NCc1nc2cccnc2n1Cc1ccccc1Cl`, with inactive: -5.43%.
As to `COc1ccccc1CNC(=O)CCc1c(C)nn(-c2ccc(N3CCOCC3)nn2)c1C`, the “activity change, positive = activation” value is inactive: -6.03%.
Then `COc1ccc(NC(=O)CSc2nc3c([nH]c4ccccc43)c(=O)n2-c2ccccc2)c(OC)c1`, with inactive: -33%; and `O=C(NCc1ccco1)c1ccc2c(c1)N(Cc1ccccc1)C(=O)c1ccccc1S2(=O)=O`, with inactive: -15.1%.
Under `COCCNc1ncnc2c1c(-c1ccccc1)cn2-c1ccc(C)c(Cl)c1` stands inactive: -19.5%.
Then `COc1ccc(-n2ncc3c(NC(C)(C)CO)ncnc32)cc1`, with inactive: -10.4%; and `CCOc1ccc(NC(=O)Cn2c3ncccc3c(=O)n2-c2ccc(CC)cc2)cc1`, with inactive: -8.77%; and `CCN(CC)S(=O)(=O)c1ccc(NC(=O)NCc2noc3ccc(C)cc23)cc1`, with inactive: -24.2%.

The values are drawn from PubChem BioAssay AID1508624 (National Center for Advancing Translational Sciences (NCATS), 2021).
